The source of these data is the supplement of paper PMC11417369.

± gives the standard deviation of the averaged measurements. This is one part of the list.

For the assay, the system named is PfAP2-G AP2 domain (GST-tagged). Briefly: gcPBM binding intensity (ln(normalized median fluorescence intensity)); higher = stronger DNA binding. A digest of the protocol:
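GST-fused DNA-binding domains of P. falciparum, expressed in E. coli, were applied at about 25 μg on average for 1 h to an Agilent 4 × 180k array of primer-extended double-stranded 36-bp intergenic genomic probes and negative controls. Binding intensity is the highest Masliner-normalised natural-log median intensity across replicate spots of either probe orientation, measured with Alexa488 anti-GST antibody and a 488 nm scan.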
Regarding “TATATTTTGTTTTTGTGTACATATTGGTAGTTATTT [XGTACX_site7659]”, the “gcPBM binding intensity (ln)” value was 11.5 ± 0.86.
Under “TGATTATCCTATATATATTTCATAATGGAAAAAAAT [TGCATGCA_negctrl_site444]” stands 9.89 ± 0.35; under “AATGTGGTATTTACAAAAAGGCTTTATACTTAAAAA [XGTACX_negctrl_site566]”, 10.3 ± 0.29; under “AAAAATAGTCTTCTTGCACTTTTTAATTTATTTTAA [CACACA_negctrl_site1322]”, 10.1 ± 0.19.
Under “CTATTATATCAGTAGACACACATATAACATTTATAT [CACACA_site141]” stands 10.1 ± 0.12; under “AAAATTCAGCGAAAGGGTACATATGTGTAAGGGTAA [XGTACX_site8205]”, 11.1 ± 0.54; under “TATATTTATATACCAACACACATACATATTTATATA [CACACA_site6931]”, 10.14 ± 0.085.
The value for “ATGGATTTTACCATAGCACACATATATGAATATTTT [CACACA_site8535]” was 10.02 ± 0.035.
Take “ATATAGAAAATGCATACACACTTTATATATATATTT [CACACA_site4658]”: the “gcPBM binding intensity (ln)” value came to 9.8 ± 0.085.
In the case of “TAATTATTTCGTATATTTGAATGGTACATGCTTATA [CACACA_negctrl_site1178]”, the “gcPBM binding intensity (ln)” value stood at 10.7 ± 0.6.
Under “ATCTTATATTATCACACACACACGCACAAAACAGAA [CACACA_site1463]” stands 10.4 ± 0.45; under “TTTATTAAACTTGACACACACACACCCACATATATA [CACACA_site760]”, 10.6 ± 0.59.
The value for “ATATTATATAGAAACACACATACACATGTAAATATA [CACACA_site2037]” was 10.12 ± 0.049; that for “AGTAACAATTATTATGCATGTACAAATAATCATTTT [TGCATGCA_site867]” was 10.7 ± 0.49; that for “AATGTGCTCGCTATTACACACTCATTGGGATAAAAT [CACACA_site8627]” was 10.4 ± 0.32.
Under “TAAAAACCAAAGAAAAGTACAAATTTAAATGAGAAA [XGTACX_site7450]” stands 11.1 ± 0.56.
Turning to “TTTACACCGTAATATGCATGTGTGTATATATTTTTG [TGCATGCA_site186]”, the “gcPBM binding intensity (ln)” value was 9.97 ± 0.13.
On to “ATAAGCCATTTTTGTGGTACATAAAATAGATATATA [XGTACX_site5175]”, for which the “gcPBM binding intensity (ln)” value came out at 11.3 ± 0.75.
In the case of “TATACACGCGGACACACACACACACGCAAAAAAAAA [CACACA_site6377]”, the “gcPBM binding intensity (ln)” value is 11.5 ± 1.
The value for “CATCTTAGTTTGAGTTGTACAATATTTATAAAAATA [XGTACX_site693]” was 11.4 ± 0.81; that for “GCACAATTTACACTTAAACACACAAAAAAAAATTAT [CACACA_site8642]” was 10.05 ± 0.099; that for “AAATTTATTTATTATAGTACACTTAATACTACCCAA [XGTACX_site41]” was 11.4 ± 0.73.
Under “AGCACAGACGGACACACACACACACCCACAGACACA [CACACA_site4358]” stands 11.5 ± 0.95.
In the case of “ATATATATTTAAAGATGTACATAATGAAATGGTTAT [XGTACX_site4706]”, the “gcPBM binding intensity (ln)” value turned out to be 11.2 ± 0.71.
Under “GCAGTATTTCGGAACACACAAACATAAATATGTATT [CACACA_site2316]” stands 10.2 ± 0.19; under “ATATATATATATGTATGTACATATTTTTTTTAACAC [XGTACX_site8475]”, 11.4 ± 0.89; under “TTAAAACATAAAAAAAGTACATACAAATATATATAA [XGTACX_site789]”, 11.6 ± 0.94.
Turning to “TACAAAATAACTAGCACACATATGTATAAACATATA [CACACA_site5948]”, the “gcPBM binding intensity (ln)” value stood at 10.1 ± 0.17.
The value for “TATGTCAATCAAGCAAGTACATATATATATAAATAT [XGTACX_site7554]” was 11.1 ± 0.84; that for “AATTATATTACGAAATGTACATATAATAATGTATAT [XGTACX_site4410]” was 10.9 ± 0.54; that for “GCCATTGTACCATCCACACACATATATATATGTATA [CACACA_site2704]” was 10.9 ± 0.53.
The value for “TTCAAAACTTAAAATCGTACAAGACAATTATTATAT [XGTACX_site6626]” was 11.2 ± 1.1; that for “TTTGTTAAAAATATATTATGAATAAAAATATATTTT [CACACA_negctrl_site170]” was 9.51 ± 0.085; that for “ATATATATAAATAATTGTACTTAAAAAAAAAAAAGG [XGTACX_site6847]” was 11.3 ± 0.9.
Under “TGTAGAGCGCAAAGTAGTACTACAAATTATGGAGGG [XGTACX_site3022]” stands 11.8 ± 1; under “AACAGCATATCACATTTCTTCAAAAAAAAATAAAAT [CACACA_negctrl_site733]”, 9.96 ± 0.49.
For “CTTTTAATATTAAGATGTACTTAGAATTTTTTTTTT [XGTACX_site8338]”, the “gcPBM binding intensity (ln)” value stood at 11.1 ± 0.67.
The value for TTTTTTGTTATTGGCGTGCACATATCCATTTATAGT was 10.6 ± 0.33; that for “CATATATATTTATGTACACACATTAATAAAAAAAAA [CACACA_site5741]” was 11.5 ± 0.97; that for “CCAAGAAACCAAAAAAGTACATACATGGTTATAATT [XGTACX_site4249]” was 11.4 ± 0.9.
As to “ACAATATGTATATATATATATATGCAAATGTATAAA [CACACA_negctrl_site53]”, the “gcPBM binding intensity (ln)” value is 9.855 ± 0.078.
Under “TAAACACCCATATAAACACACATACATACATACATA [CACACA_site5383]” stands 10 ± 0.22; under “GATTAATTTAAAAAATGTACATTTTATTGTATAACC [XGTACX_site5539]”, 11 ± 0.64; under “ATATTAAATTCAATTTAATGTTTTGTGAATTTTAGA [CACACA_negctrl_site1421]”, 9.88 ± 0.43.
Take “TTAAATGGAAAAATATGTACATATATATATATATTT [XGTACX_site2286]”: the “gcPBM binding intensity (ln)” value was determined as 11.2 ± 0.7.
For the sequence “TGAACTCATAGATTTAGTACATATATAAAAAAATTC [XGTACX_site1692]”, the “gcPBM binding intensity (ln)” value is 11.1 ± 0.54.
The value for “TTAATTTTTTTTTCTTGTACACACTATTTTATAATT [XGTACX_site8783]” was 11.4 ± 0.91; that for “TAGTATTAAATATATACACACATATATACATATAGA [CACACA_site2154]” was 10 ± 0.23.
As for “GTAATAAAATGACATACATGCATTACAATTATGTAA [TGCATGCA_site220]”, the “gcPBM binding intensity (ln)” value was 9.755 ± 0.007.
Consider “TATTATAATACTTATTGTACTTTTAGGTTAATTTAT [XGTACX_site995]”, for which the “gcPBM binding intensity (ln)” value stood at 11.3 ± 0.76.
As to “GTTGCACAATGTTACACACACAATATATATCGTTAA [CACACA_site1275]”, the “gcPBM binding intensity (ln)” value came to 10.16 ± 0.092.
Under “GTGTACTTTTAAATAGTGCATTTTACAATAATAAAA [GTGCAC_site9653]” stands 11.5 ± 1.2; under “GCAGCAGCATTTTCAGTGCATTATTATATTGTTCAT [GTGCAC_site9926]”, 9.76 ± 0.17; under “GGAAACCTTTTTTTTACACACAATATATTAAGACTT [CACACA_site4899]”, 9.86 ± 0.014.
For “CCCTTTTTTTTTTAATGTACATATAATTATATATTT [XGTACX_site8568]”, the “gcPBM binding intensity (ln)” value came out at 11.3 ± 0.61.
Under “AAAGCAAAAGGAAAATAACCAACCCTAATTAACACA [CACACA_negctrl_site530]” stands 10.04 ± 0.071; under “AATTGTACGTAGGGGTATAAAAGCTTAAAAATGGGG [CACACA_negctrl_site1392]”, 11.6 ± 0.91; under “AAATTAGACTATAATACACACATAAAAAAAAAAAAA [CACACA_site6155]”, 9.93 ± 0.35.
The value for “AGATATCTTGTGAAATAAAAAAAATAATTGCTTATA [CACACA_negctrl_site798]” was 9.63 ± 0.17; that for “ATATTATATTATTAATGTACATATATATAATTTTAA [XGTACX_site4974]” was 11.2 ± 0.64; that for “AAGGCAAACAAACACACACACATATATACCTATATA [CACACA_site5203]” was 10.1 ± 0.2.
Consider “AGAAATGAAATCCAAAAACGAGGAACCAATAACGCA [CACACA_negctrl_site1758]”, for which the “gcPBM binding intensity (ln)” value worked out at 10.29 ± 0.014.
The value for “TCTTATCCATATATTACACACTATATATAGAAATTA [CACACA_site291]” was 10.2 ± 0.31; that for “ATATAAACATTTAGTAATCCATATAGGTACTACTGA [CACACA_negctrl_site1249]” was 11.2 ± 0.7.
The value for “AAAAAAAATATATAAACACACATATTTATATACGCA [CACACA_site1631]” was 9.845 ± 0.049; that for “TATTTATAGATATATACACACATATACATATTGTTT [CACACA_site7611]” was 9.83 ± 0.16.
The value for “ATATATGCTAATATATGTACTGATTATATCTCTTCA [XGTACX_site7156]” was 10.8 ± 0.59.
In the case of “TCCTTCGAAACTAAAATTCATTTAAAATATTGATAT [CACACA_negctrl_site369]”, the “gcPBM binding intensity (ln)” value is 9.615 ± 0.021.
Under “AAAGAAAAAAAAATTACACACATATATTATAGATAT [CACACA_site7495]” stands 9.82 ± 0.085; under “TAGGTCCTCATTTTATGTACATAAAGAAATATGATT [XGTACX_site4138]”, 11.5 ± 0.85; under “TACATACATACATACACACACACATATATATATATA [CACACA_site42]”, 10.7 ± 0.4.
Under “TATATATCTTTATGCACACACAAAGAAAATTTTCCT [CACACA_site7366]” stands 10.21 ± 0.099.
Under GTTTGAATATATCAGGTGCATTTATAATTCATATGA stands 9.88 ± 0.13.
As to “ATTAATTTAATTTGAATTATTTTATTATATTATTAT [XGTACX_negctrl_site10]”, the “gcPBM binding intensity (ln)” value worked out at 9.55 ± 0.13.
“ATTTAGAATGTTCCTACACACCAAATTTAAGTGTGC [CACACA_site7161]”: the “gcPBM binding intensity (ln)” value worked out at 10.11 ± 0.049.
The value for “TACATACACAGACACACACACATATAAATATAAATA [CACACA_site7641]” was 10.2 ± 0.32; that for “TTTTTTTTAGTATGAACACACATATAGATTATAAAA [CACACA_site7391]” was 10.2 ± 0.28; that for “TAATTAAATATTTCAGTGCATTATTTTATGATCCAT [GTGCAC_site9456]” was 9.94 ± 0.21.
In the case of “AGATGAACTAAAAAGGTGCTAAATATGTGACCACTG [GTGCAC_site9406]”, the “gcPBM binding intensity (ln)” value is 11.3 ± 0.82.
Under “ATAAGAAGAAGAAAAACACACATATGTAAATATATA [CACACA_site3138]” stands 9.88 ± 0.13; under “ATATTATAGATATACACACACACATGCATGCACATA [CACACA_site6203]”, 10.06 ± 0.071; under “CAAAATGAAAGGAAAAGTACATTTAAATGAATAAAT [XGTACX_site8241]”, 11.2 ± 0.7.
With “AAATAATTCAAAAAAACACACAAATTACAAAATAAA [CACACA_site269]”, the “gcPBM binding intensity (ln)” value came to 9.94.
For the sequence “ACCTAATATTATTAAACATGCACATTTGCATAAATA [TGCATGCA_site870]”, the “gcPBM binding intensity (ln)” value was found to be 9.93 ± 0.13.
“GTATAATATTCATATTCACACATTAAAATATATTTA [CACACA_site4879]”: the “gcPBM binding intensity (ln)” value is 9.85 ± 0.042.
Under “TAAAAATATATTATATGTACGTATAACAATGTATGA [XGTACX_site8606]” stands 11.4 ± 0.85; under “TATAGATGTGGTTTATGTACATACTATAAAAAATCA [XGTACX_site1400]”, 11.4 ± 0.64; under “TTATATATATATATATAATATATATATATTTAAATA [XGTACX_negctrl_site453]”, 9.435 ± 0.049.
